PubChem BioAssay AID504332 (National Center for Advancing Translational Sciences (NCATS), 2011)
“And” between values parts separate entries of the source, which are not always exact repeats. Identical values can stand only once. The campaign covered roughly 350,000 compounds. About 31,000 (8.9%) were called active. The shares of active, inactive and inconclusive entries below differ from those in the screen. The call rests on the fitted dose curve; in most records, active means well fitted inhibition curve with a large enough effect; inconclusive means small, poorly fitted or top-dose-only effect; inactive means no such curve, though single readings can be large or run the other way. Potencies beside an inconclusive call are fits to weak or partial responses and may not hold up. The source holds several records for some structures; these can differ, active in one and inactive in another.

Target: Histone-lysine N-methyltransferase EHMT2 (Homo sapiens) (UniProt Q96KQ7)
Assay: qHTS Assay for Inhibitors of Histone Lysine Methyltransferase G9a; further: nearly all actives have a fitted effect of over 75% in size
Details: G9a H3K9 monomethylation, AlphaScreen, 2 h; activity, negative = inhibition: at 59 µM (top of the series) unless noted
Outline: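 Compounds were preincubated with 20 nM G9a for 15 min, after which biotinylated H3K9 peptide (500 nM) and SAM (20 uM) started a 2 h room-temperature reaction. Monomethylated product was quantified by antibody-based AlphaScreen chemiluminescence.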
On the % scale 0 is the no-effect control and ±100 the full control effect; potency means the concentration at half of the fitted maximal effect; tags describe the fitted curve by direction and shape.

Sequence of UniProt Q96KQ7 (Q96KQ7 whole entry, looked up): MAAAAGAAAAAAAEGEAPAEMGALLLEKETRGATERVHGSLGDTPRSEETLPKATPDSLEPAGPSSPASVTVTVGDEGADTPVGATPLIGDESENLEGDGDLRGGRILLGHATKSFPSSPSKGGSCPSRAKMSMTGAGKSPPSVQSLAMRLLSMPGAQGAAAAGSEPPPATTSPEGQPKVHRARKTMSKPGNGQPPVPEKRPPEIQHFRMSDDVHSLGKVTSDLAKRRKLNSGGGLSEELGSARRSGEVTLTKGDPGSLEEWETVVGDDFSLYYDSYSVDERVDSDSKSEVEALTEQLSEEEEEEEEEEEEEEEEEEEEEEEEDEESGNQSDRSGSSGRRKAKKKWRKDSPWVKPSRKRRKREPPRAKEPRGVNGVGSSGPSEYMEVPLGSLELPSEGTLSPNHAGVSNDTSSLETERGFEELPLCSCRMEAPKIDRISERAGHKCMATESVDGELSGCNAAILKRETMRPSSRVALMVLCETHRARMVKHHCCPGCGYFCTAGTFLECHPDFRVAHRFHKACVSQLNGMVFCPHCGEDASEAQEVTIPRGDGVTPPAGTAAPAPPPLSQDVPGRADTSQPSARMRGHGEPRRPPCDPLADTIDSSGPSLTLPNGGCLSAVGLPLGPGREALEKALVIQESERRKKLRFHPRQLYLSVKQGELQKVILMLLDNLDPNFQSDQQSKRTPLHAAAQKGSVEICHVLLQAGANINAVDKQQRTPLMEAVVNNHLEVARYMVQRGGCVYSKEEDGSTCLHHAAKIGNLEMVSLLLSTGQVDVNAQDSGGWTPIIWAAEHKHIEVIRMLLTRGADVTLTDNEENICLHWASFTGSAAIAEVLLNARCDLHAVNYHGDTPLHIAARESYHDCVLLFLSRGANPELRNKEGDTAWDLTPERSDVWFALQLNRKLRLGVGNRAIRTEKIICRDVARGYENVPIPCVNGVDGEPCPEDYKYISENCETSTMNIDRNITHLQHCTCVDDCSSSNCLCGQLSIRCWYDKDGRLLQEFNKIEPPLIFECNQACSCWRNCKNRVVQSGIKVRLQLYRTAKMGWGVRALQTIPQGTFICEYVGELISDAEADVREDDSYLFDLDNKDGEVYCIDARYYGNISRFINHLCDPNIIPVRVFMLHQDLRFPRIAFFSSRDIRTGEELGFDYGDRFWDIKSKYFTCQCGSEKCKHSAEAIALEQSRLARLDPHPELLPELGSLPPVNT

SMILES	Potency	activity, negative = inhibition
CC1CN(CCCCOc2ccc(F)cc2)CC(C)O1 (centres undefined)	active: 10 µM	
CC(C)c1ccc(C2CC(=O)N3CN(C4CCCCC4)CSC3=C2C#N)cc1 (centres undefined)	active: 2.24 µM	
COc1ccc(OC)c(C(=O)N/N=C/c2ccccn2)c1	inconclusive: 3.98 µM [inhibitor, full curve, poor fit]	
Cc1ccc(/C=N/Nc2ccccn2)s1	inconclusive: 35.5 µM [inhibitor, partial curve, poor fit]	
CCOC(=O)c1ccc(NC(=O)Cc2noc3ccc(C)cc23)cc1	active: 12.6 µM	
CC(C)COC(=O)N1CCCC1C(=O)Nc1nccs1 (centres undefined)	inconclusive: 0.355 µM [inhibitor, partial curve, poor fit]	
Nc1ccc2nc(-c3ccc(N)c(Cl)c3)[nH]c2c1	inconclusive: 25.1 µM [inhibitor, single point]	
CCN(CC)c1ccc(CN(C(=O)c2cc(=O)c3ccccc3o2)C2CCS(=O)(=O)C2)cc1 (centres undefined)	inconclusive: 14.1 µM [inhibitor, partial curve, poor fit]	
CCCOc1ccc(C2C(C(=O)c3ccc(C)o3)=C(O)C(=O)N2Cc2cccnc2)cc1 (centres undefined)	inconclusive: 89.1 µM [inhibitor, single point]	
COc1cccc(NC(=O)CCC(=O)Nc2cc(OC)c(NC(=O)c3cccs3)cc2OC)c1	inactive	
CCn1c(CSc2nc3ccccc3[nH]2)n[nH]c1=S	inconclusive: 3.16 µM [inhibitor, partial curve, poor fit]	
COc1ccc(Cn2c(=O)[nH]c3cc(C(=O)NCCCN4CCCCCC4)ccc3c2=O)cc1	active: 56.2 µM	
CCNC(=S)N/N=C(\C)c1cccc(C(F)(F)F)c1	inconclusive: 89.1 µM [inhibitor, partial curve, poor fit]	
Cc1ccc(NCCC(=O)c2cccc([N+](=O)[O-])c2)c(C)c1		inconclusive: -143% [inhibitor]
COc1cc(/C=N/N(C)S(=O)(=O)c2ccc(C)cc2)cc([N+](=O)[O-])c1O		inconclusive: -85.3% [inhibitor]
C[C@H](NC(=O)/C(C#N)=C/c1ccc(O)c(O)c1)c1ccccc1	active: 7.94 µM	
COc1ccc(/C=C/CN2CCN(CC(C)C)C(CCO)C2)cc1 (centres undefined)	inconclusive: 70.8 µM [inhibitor, partial curve, poor fit]	
O=S(=O)(NCCNC/C=C/c1ccc(Br)cc1)c1cccc2cnccc12	active: 15.8 µM and active: 50.1 µM	
CCOc1ccccc1-c1n[nH]c(=S)o1	active: 1.78 µM	
